In all, about 46,000 compounds went through this assay and about 60 (0.1%) were called active. Not shown: some 3% with an inconclusive outcome. Calls come from the whole dose curve; as a rule, active = well fitted inhibition curve with a large enough effect; inconclusive = small, poorly fitted or top-dose-only effect; inactive = no such curve, though single readings can be large or run the other way. The list shows a part of the results.
test: Primary qHTS assay for Inhibitors of ovarian cancer metastasis using an organotypic tumor microenvironment (TME) model.; note: nearly all actives have a fitted effect of over 65% in size;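 for activity change, negative = inhibition: plate controls were DMSO wells for no effect and tomatine positive control wells for full effect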; conditions: SKOV3ip1-GFP adhesion/invasion on 3D omental model, fluorescence; series mostly up to 45.8 µM; activity change, negative = inhibition: at the top concentration
Procedure, shortened: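 Primary human omental fibroblast/mesothelial 3D culture pre-formed 48 h. SKOV3ip1-GFP cells added with compounds (0.36-46 umol/L), incubated 2 h RT/16 h 37 C, fixed; GFP cells quantified at 488/509 nm.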

Activity change, negative = inhibition, inactive:
O=C(c1ccccc1F)N1c2ncnn2C2(CCCCC2)[C@@H]2CCCC[C@@H]21 -9.98%
CCSc1ncc(Cl)c(C(=O)Nc2nnc(CC)s2)n1 -9.77%
CCOc1ccc2oc(=O)cc(CN3CCN(C(=O)c4ccc(OC)c(OC)c4)CC3)c2c1 -21.9%
O=C(C1CCN(c2ncnc3c2nc2n3CCCCC2)CC1)N1CCN(c2ccccc2F)CC1 7.87%
CCC(C(=O)NCCc1ccccc1)n1nc(C)c2sc3ccccc3c2c1=O (centres undefined) 8.04%
Cc1c(C)n(Cc2ccc(F)cc2)c2ccc(C(=O)N3CCN(c4ccc(F)cc4)CC3)cc12 -0.526%
COc1ccc(C2=C(C)C(N3CCC(C(=O)Nc4ccccc4F)CC3)=NS2(=O)=O)cc1 -6.89%
CC(=O)N1CCCc2cc(S(=O)(=O)N3CCCC(C(=O)NCc4ccccc4Cl)C3)ccc21 (centres undefined) 0.184%
Cc1ccc(-n2c(=O)c3c4c(sc3n(Cc3cc(=O)n5cc(Cl)ccc5n3)c2=O)CCC4)cc1C -0.939%
COc1ccccc1CCNC(=O)Cc1ccc(NC(=O)N2CCSc3ncccc32)cc1 7.64%
Cc1ccc2oc(-c3ccc(Cl)c(NC(=O)Cc4ccccc4)c3)nc2c1 0.469%
COc1ccccc1CNC(=O)c1cc2c(=O)oc3ccc(C)cc3c2s1 0.132%
COc1ccc(CNC(=O)c2cc3c(=O)n(Cc4cccnc4)ccc3nc2C)cc1 -0.606%
COc1cccc(NC(=O)CSc2nc3c([nH]c4ccccc43)c(=O)n2-c2cc(C)cc(C)c2)c1 -4.41%
CC(=O)c1ccc(S(=O)(=O)N2CCn3cccc3C2c2ccccc2F)cc1 (centres undefined) -15.2%
Cc1cccc(C)c1OCc1nc2c3cnn(-c4ccccc4F)c3ncn2n1 -4.37%
CC(C)(C)c1ccc(OCc2nc3ccccc3n2CCOc2ccccc2)cc1 -5.23%
CCc1cccc(OCC(=O)Nc2ccc(S(=O)(=O)Nc3ncccn3)cc2)c1 -2.77%
CCOc1ccccc1NC(=O)C1CCN(S(=O)(=O)c2ccc3[nH]c(=O)oc3c2)CC1 17.2%
CCC(C)NC(=O)c1c(C)oc2ncn(CC(C)C)c(=O)c12 (centres undefined) 4.87%
O=C(CCS(=O)(=O)c1cc(Br)cc2c1N(C(=O)C1CC1)CC2)N1CCN(c2cccc(Cl)c2)CC1 1.67%
Cc1cc(C(=O)N2CCN(c3ccccc3)CC2)c2c(C)nn(-c3cccc(F)c3)c2n1 9.47%
CC1=C(C(=O)OC2CCCC2)C(c2c(Cl)cccc2Cl)CC(=O)N1 (centres undefined) -2.47%
Cc1cc(C)c(NC(=O)c2nc3ccccc3nc2N2CCCCC2)c(C)c1 -19%
CCC(=O)N1CCc2cc(S(=O)(=O)NC(C(=O)NCCc3ccc(OC)c(OC)c3)C(C)C)ccc21 (centres undefined) -19.2%
O=C(Cn1c(=O)n(CCc2ccccc2)c(=O)c2cccnc21)Nc1ccc(F)cc1 -1.71%
CCCCNC(=O)C1CCC(Cn2c(=O)c3sccc3n(Cc3ccccc3)c2=O)CC1 (centres undefined) 13.8%
CCc1ccc(-n2c(=O)c3c4c(sc3n(Cc3cc(=O)n5c(C)cccc5n3)c2=O)CCC4)cc1 31.1%
Cc1ccccc1CSc1nnc2[nH]c(=O)cc(-c3ccccc3)n12 -5.03%
Cc1ccc(CNC(=O)c2nn(-c3ccc(Cl)cc3)nc2CO)cc1 -2.04%
CCOC(=O)c1ccccc1NC(=O)Cn1ncc2c1-c1ccccc1OC2 1.1%
Cc1cc(C)cc(NC(=O)CSc2oc(-c3ccccc3)nc2S(=O)(=O)c2ccc(Cl)cc2)c1 -18.7%
Cc1ccc(N2C(=O)c3n[nH]c(C)c3C2c2ccc(Cl)cc2)cc1 (centres undefined) 16.4%
CC(=O)NC(CS)C(=O)O (centres undefined) -22.9%
Cc1ccc2c(c1)N(CC(=O)NCCc1ccccc1)C(=O)CO2 5.65%
CC(C)OCCCNC(=O)C(=O)Nc1c2c(nn1-c1ccccc1)CS(=O)(=O)C2 20.5%
CCc1ccccc1NS(=O)(=O)c1ccc2nc(-c3ccccc3)[nH]c2c1 -17.8%
CN(C)CC[C@H](CSc1ccccc1)Nc1ccc(S(=O)(=O)NC(=O)c2ccc(N3CCN(Cc4ccccc4-c4ccc(Cl)cc4)CC3)cc2)cc1[N+](=O)[O-] 14.6%
CCc1ccccc1NC(=O)Nc1c(C)n(C)n(-c2ccccc2)c1=O -0.475%
CCCC(=O)Nc1cc2nn(-c3ccccc3)nc2cc1C 9.4%
CCOC(=O)c1c(C)[nH]c(C)c1S(=O)(=O)N1CCC(C(=O)Nc2ccc(OCC)cc2)CC1 0.82%
CSc1ncc(C(=O)Nc2ccccc2C(F)(F)F)c(-c2ccccc2)n1 1.79%
CCCc1nc2nc(C)c(NS(=O)(=O)c3ccc(CC(C)C)cc3)c(=O)n2[nH]1 -11.6%
CCOC(=O)c1ccc(N2C(=O)c3[nH]nc(-c4ccc(C)cc4)c3C2c2cccs2)cc1 (centres undefined) -2.91%
CCCCN(CCCC)CCCNC(=O)Cn1cc2c(n1)-c1c(oc(C(=O)N3CCCC3)c1C)CC2 3.12%
CCOC(=O)c1[nH]cnc1C(=O)Nc1cccc(OC)c1 -4.94%

outcome, inactive:
CCOC(=O)c1ccccc1NC(=O)CN(c1cccc(C)c1C)S(=O)(=O)c1ccccc1
CCCNS(=O)(=O)c1cc(-c2nn3c(C)nnc3c3ccccc23)ccc1C
Cc1cc(C)cc(NC(=O)Cc2csc(C)n2)c1
COc1ccc(-c2nc3ccccc3n3c(-c4cccc(C)c4)c4c(=O)n(C)c(=O)n(C)c4c23)cc1OC
COc1cc(NC(=O)C2CCN(C(=O)c3sc4nc[nH]c(=O)c4c3C)CC2)cc(OC)c1OC
CCCCNC(=O)CSc1nc2cc3c(cc2c(=O)n1CCCC(=O)NCCc1ccc(OC)c(OC)c1)OCO3
Cc1ccc(NC(=O)Cn2nc(C(F)(F)F)c3c2CCCC3)cc1C
CCOC(=O)c1[nH]c2c(c1Cc1ccccc1OC)C(=O)CC(c1ccc(OC)cc1)C2 (centres undefined)
COc1ccc(C(=O)NCC(c2ccco2)S(=O)(=O)c2ccc(F)cc2)cc1 (centres undefined)
Cc1ccc(C)c(N2CCN(C(=O)CN3C(=O)COc4ccc(S(=O)(=O)N5CCCC5)cc43)CC2)c1
Cc1ccc(C)c(Cn2c(=O)n(CCCCC(=O)NCc3ccc4c(c3)OCO4)c(=O)c3ccccc32)c1
CC(C)OCCCNc1ncnc2sc3c(c12)CCCC3
CCCCn1cc(S(=O)(=O)c2cc(C)ccc2C)c(=O)c2cc(F)c(N3CCC(C)CC3)cc21
